Hit rate of the full screen: of about 310,000 compounds, about 14,000 (4.5%) showed an effect of 50% or more. The effect is printed as a negative number. The list shows a part of the results.
Molecular target: human ether-à-go-go-related gene (hERG) potassium channel (human, UniProt Q12809)
Assay: primary screen, population patch clamp on CHO cells stably expressing hERG
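Also: peak tail current of the secondary pulse compared with the same well before compound.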

Sequence of human ether-à-go-go-related gene (hERG) potassium channel (Q12809 whole entry, looked up): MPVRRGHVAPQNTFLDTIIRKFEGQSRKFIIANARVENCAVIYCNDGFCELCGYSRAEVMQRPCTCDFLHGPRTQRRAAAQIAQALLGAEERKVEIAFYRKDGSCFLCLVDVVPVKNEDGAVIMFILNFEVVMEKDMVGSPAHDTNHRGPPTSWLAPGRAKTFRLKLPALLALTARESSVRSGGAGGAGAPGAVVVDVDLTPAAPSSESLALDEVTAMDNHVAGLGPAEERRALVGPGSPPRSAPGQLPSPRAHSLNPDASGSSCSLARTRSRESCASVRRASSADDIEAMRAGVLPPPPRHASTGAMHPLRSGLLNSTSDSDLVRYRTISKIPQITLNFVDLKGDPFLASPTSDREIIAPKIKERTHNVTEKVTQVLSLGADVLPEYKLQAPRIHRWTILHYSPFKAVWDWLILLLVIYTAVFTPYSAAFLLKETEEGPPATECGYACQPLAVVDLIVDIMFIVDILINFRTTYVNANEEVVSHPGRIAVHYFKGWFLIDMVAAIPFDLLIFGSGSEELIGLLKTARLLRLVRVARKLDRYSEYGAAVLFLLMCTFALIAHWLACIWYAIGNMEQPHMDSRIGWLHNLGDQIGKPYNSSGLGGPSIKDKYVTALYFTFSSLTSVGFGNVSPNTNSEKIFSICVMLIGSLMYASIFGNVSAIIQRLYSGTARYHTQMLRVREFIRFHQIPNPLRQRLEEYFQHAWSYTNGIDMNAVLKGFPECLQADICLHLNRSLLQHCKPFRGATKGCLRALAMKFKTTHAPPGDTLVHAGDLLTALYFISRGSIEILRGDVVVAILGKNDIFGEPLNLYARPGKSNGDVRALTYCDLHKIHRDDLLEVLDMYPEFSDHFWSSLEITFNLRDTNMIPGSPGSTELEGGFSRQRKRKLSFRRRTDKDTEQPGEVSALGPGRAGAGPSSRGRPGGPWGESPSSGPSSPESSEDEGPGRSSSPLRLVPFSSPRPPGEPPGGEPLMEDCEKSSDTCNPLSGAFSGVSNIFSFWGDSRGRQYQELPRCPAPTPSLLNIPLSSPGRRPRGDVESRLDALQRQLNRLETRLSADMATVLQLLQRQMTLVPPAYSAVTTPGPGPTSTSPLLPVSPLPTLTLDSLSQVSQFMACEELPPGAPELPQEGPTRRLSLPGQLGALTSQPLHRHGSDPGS

Point of comparison: `Cc1ccc(C(=O)N/C(=C\c2ccc(F)cc2)C(=O)NCCN2CCOCC2)cc1`, “hERG current change (%, negative = inhibition) at 10uM” value -75.6%. Against it:
- Cc1ccc(S(=O)(=O)N2CCC(C(=O)C3C(=O)CCCC3=O)CC2)cc1 — higher, 10.6%
- CCN(CC)c1ccc(C(=O)OCc2cc(=O)oc3cc(O)ccc23)cc1 — higher, 1.23%
- Cc1cc(NC(=O)CSc2nc3sc4c(c3c(=O)n2C)CCCC4)no1 — higher, 7.47%
- CCNc1nc(N)nc(Oc2ccc(OCC)nn2)n1 — higher, 4.35%
- O=C(O)c1ccc(COc2c(F)c(F)cc(F)c2F)cc1 — higher, 7.2%
- CC(C)(C)OC(=O)Cn1c(=O)cnc2ccccc21 — higher, 10.9%
- Nc1nnc(SCC(=O)Nc2cccc(S(N)(=O)=O)c2)s1 — higher, 15.3%
- O=C(CCSCCC(=O)N1CCCC1)N1CCCC1 — higher, 23.7%
- Cc1cccc(CN2CCN(Cc3nc4c(s3)CCCC4)CC2CCO)n1 (centres unmarked) — higher, -28.6%
- Cc1ccc(-c2nn(CC(N)=O)c(=O)c3ccccc23)cc1S(=O)(=O)N(C)C — higher, -19%
- Cc1cccc(N(C(=O)c2csnn2)C(C(=O)NC2CCCCC2)c2ccccn2)c1C (centres unmarked) — higher, 11.4%
- O=C(c1ccc2c(c1)OCCO2)N1CCN(Cc2c(F)cccc2Cl)CC1 — higher, -10.7%
- Cc1c(NC(=O)OC(C)C)sc(=S)n1C — higher, -0.457%
- C=CCNC(=S)NNC(=O)CC12CC3CC(CC(C3)C1)C2 — higher, 16.9%
- COc1cc2c(C(=O)NCc3ccc(C)o3)cn(CC(C)C)c(=O)c2cc1OC — higher, -13.5%
- CCCN(CCC)CCCNC(=S)Nc1ccc2nc(N3CCCC3)cc(C)c2c1 — higher, -60.4%
- COCc1cc(OC(=O)N(C)C)nc(-c2ccc(C)c(Cl)c2)n1 — higher, 14.7%
- Cc1ccccc1-n1c(C)nnc1SCC(=O)N(C)C1CCS(=O)(=O)C1 (centres unmarked) — higher, 17.7%
- COc1ncnc(NS(=O)(=O)c2ccc(N)cc2)c1OC — higher, -12.2%
- CCOC(=O)CSc1nc(-c2ccccc2)nc2ccc(F)cc12 — higher, 25%
- Cc1ccc(CN2CCN(Cc3cnn(-c4ccc(F)cc4)c3)CC2CCO)o1 (centres unmarked) — higher, -56.1%
- C=CCN1C(=O)CSc2ccc(C(=O)OCC)cc21 — higher, -16.2%
- COc1ccc(NC(=O)NCc2cccnc2)c(OC)c1 — higher, 16.5%
- O=C(CCS(=O)(=O)c1cccs1)NC1CCCCCC1 — higher, 1.63%
- Cc1nn(Cc2cccc(C(=O)NC(C)c3ccc(C(C)(C)C)cc3)c2)c(C)c1[N+](=O)[O-] (centres unmarked) — higher, -6.38%
- CS(=O)(=O)Nc1cccc(C2=NN(C(=O)c3cccc([N+](=O)[O-])c3)C(c3cccs3)C2)c1 (centres unmarked) — higher, -13.4%
- CC1(C)CC(=O)C2=C(C1)N(Cc1cccnc1)C(=O)C2(NC(=O)C1CC1)C(F)(F)F (centres unmarked) — higher, -2.59%
- CC(Oc1ccc(Cl)cc1Cl)C(=O)NCCN1CCOCC1 (centres unmarked) — higher, -4.16%
- COc1ccccc1N1CCN(CCNC(=O)Nc2cccc(C)c2C)CC1 — higher, -68.8%
- CCOc1cc(/C=C2/NC(=O)N(CC(=O)OC)C2=O)ccc1O — higher, 3.71%
- Cc1ccc(S(=O)(=O)Cc2ccc(C(=O)NC3CCCCCC3)o2)cc1 — higher, -19.3%
- O=[N+]([O-])c1nn(-c2ccc3c(c2)OCCO3)n(O)c1=NCc1ccccc1Cl — higher, 0.261%
- CN1C(=O)NC(c2ccc([N+](=O)[O-])cc2)C2=C1CC(C)(C)CC2=O (centres unmarked) — higher, 7.27%
- O=C1CCCc2c1cc(-c1ccccc1)n2-c1ccccc1 — higher, -19.3%
- N#CC1=C(N)SC(N)=C(C#N)C1CCc1ccccc1 — higher, 26.4%
- Cc1cccc(C)c1NC(=O)CNC(=O)c1ccc2nc[nH]c2c1 — higher, 12.2%
- O=C(c1nn2cccnc2c1Cl)N1CCN(c2ccccc2)CC1 — higher, 2.01%
- C=CCn1c(NCc2ccccc2OC)nc2ccccc21 — higher, -18.9%
- COC(=O)c1cc(S(=O)(=O)NCC2CCN(Cc3cccc(Cl)c3)CC2)c[nH]1 — higher, -41.9%
- CCOc1ccc(NC(=O)C2CCC(CNc3c(N4CCOCC4)c(=O)c3=O)CC2)cc1 (centres unmarked) — higher, 3.11%
- CCN(CC)C(=O)COc1ccc2oc(-c3ccco3)cc(=O)c2c1 — higher, -1.47%
- CC1C(=O)N2CCCc3cc(S(=O)(=O)N(C)CCC#N)cc1c32 (centres unmarked) — higher, 1.48%
- N#C/C(=C/c1ccc(Cl)cc1)NC(=O)c1ccccc1 — higher, 7.27%
- CC1CCN(CC(=O)Nc2sc3c(c2C#N)CCC3)CC1 — higher, 8.67%
- CCCCOc1ccc(C(=O)Nc2ccc(S(=O)(=O)Nc3cc(C)on3)cc2)cc1OC — higher, 15.7%
- CCCCCn1c(N2CCN(c3cccc(Cl)c3)CC2)nc2c1c(=O)[nH]c(=O)n2C — higher, -29.2%
- COc1cc(OC)c(NC(=O)Nc2ccc(OC)c(OC)c2)cc1Cl — higher, 10.9%
- O=C1CCC(c2ccccc2)c2ccccc21 (centres unmarked) — higher, 10.4%
- c1nc(NC2CCCC2)c2[nH]cnc2n1 — higher, -2.8%
- O=C(NCCNc1cc(Cl)ccc1[N+](=O)[O-])c1ccco1 — higher, -9.34%
- CCN(CC)C(=O)c1[nH]cnc1C(=O)N[C@@H](C)C(=O)OC(C)(C)C — higher, -5.56%
- COc1ccc(/C=C(\NC(=O)c2ccco2)C(=O)Nc2ccc(C(C)=O)cc2)cc1 — higher, 10.8%
- COc1ccc(NC(=O)CSc2ccc(-c3sc(C)nc3C)nn2)cc1OC — higher, 1.46%
- C=CCOc1c(Br)cc(/C=N/Nc2ccc(C(=O)O)cc2)cc1OCC — higher, -3.21%
- N#Cc1cccc(Nc2c3c(nc4ccccc24)CCCC3)c1 — higher, -74.8%
- COc1ccc(CCC(=O)N(C)CC(=O)Nc2cc(C)ccc2C)cc1 — higher, -5.86%
- O=C(c1cccc(NS(=O)(=O)c2ccc(F)c(F)c2)c1)N1CCN(C(c2ccccc2)c2ccccc2)CC1 — higher, -14.3%
- COc1ccc(NC2CCCN(C(=O)c3ccc(OC)cc3OC)C2)cc1 (centres unmarked) — higher, -6.37%
- O=C(O)c1ccc(NS(=O)(=O)c2ccc3c(c2)OCCO3)cc1 — higher, -19.3%
- Oc1c(CN2CCOCC2)cc(COCc2ccccc2)c2cccnc12 — higher, -26.8%
- COc1ccc(S(=O)(=O)Cc2ccc(C(=O)NCc3ccco3)o2)cc1 — higher, -28.8%
- CCCCn1c(N)c(N(CC(C)C)C(=O)C2CC(=O)N(c3ccc(C)cc3)C2)c(=O)[nH]c1=O (centres unmarked) — higher, 8.87%
- COc1cccc(NC(=O)N2CCCC2C(=O)NCc2ccc(Cl)cc2)c1 (centres unmarked) — higher, -21.8%
- C/C(O)=C(/C=Nc1ccccc1)C(=O)Nc1ccccc1 — higher, 8.49%
- CCN(CC)S(=O)(=O)c1ccc(N2CCOCC2)c(NC(=O)C2=COCCO2)c1 — higher, 7.38%
- COc1ccc(C2=NN(c3ccccc3)C(c3cn(CCC(=O)O)nc3-c3ccccc3)C2)cc1 (centres unmarked) — higher, 1.09%
- N#CC1=C(N)Oc2nc[nH]c(=O)c2C1c1cccs1 (centres unmarked) — higher, 11%
- CCNC(=S)NNC(=O)Nc1ccccc1 — higher, 6.65%
- COc1ccccc1C(=O)Nc1ccnn1C1CCN(C(C)CSC)CC1 (centres unmarked) — higher, -67%
- Cc1c(N)cccc1-c1nc2ccccc2[nH]1 — higher, 17%
- COC(=O)C1=C(C)NC(C)=C(C(=O)OC)C1c1ccc(C)o1 — higher, 12.7%
- COn1c(=O)c(-c2ccc(C)cc2)[n+]([O-])c2ccccc21 — higher, 15.5%
- CNCC(=O)N(CC(C)C)c1c(N)n(CC(C)C)c(=O)[nH]c1=O — higher, 18.2%
- O=C1C=CC(=O)N1c1ccc(I)cc1Cl — higher, 18.9%
- COC(=O)C1=C(c2ccc(-c3ccccc3)c(F)c2)C[C@@H]2CC[C@H]1N2C(=O)NCCOc1ccccc1 — higher, 21.1%
- Cc1ccc(P(=Nc2ccccc2)(N2CCOCC2)N2CCOCC2)o1 — higher, -17.1%
- CC(=O)N/N=C/c1cc(C(C)(C)C)cc(/C=N/NC(C)=O)c1O — higher, 20.5%
- CCOc1c(Cl)cc(CNCC(O)c2ccccc2)cc1OC.Cl (centres unmarked) — higher, -18.8%
- NS(=O)(=O)c1ccc(N/C=C\C(=O)c2ccc(F)cc2)cc1 — higher, 22%
- Cn1c(O)c(C=NCCN2CCN(C(=O)Nc3ccccc3)CC2)c(=O)n(C)c1=O — higher, 13.1%
- Cl.O=[N+]([O-])c1cc(CN(CCO)CCO)ccc1O — higher, -2.79%
- CC[C@H](C)[C@H](NC(N)=O)C(=O)Nc1ccc(OC)c(Cl)c1 — higher, 20.9%
- Cc1cc(OC(=O)c2cc(Br)ccc2Cl)c([N+](=O)[O-])c(=O)[nH]1 — higher, -2.53%
- O=C(Cc1cccc2ccccc12)NCC(=O)Nc1ccccc1F — higher, 3.24%
- CC(CSc1nnnn1-c1ccccc1)Cn1c(N2CCN(C)CC2)nc2c1c(=O)[nH]c(=O)n2C (centres unmarked) — higher, -43.6%
- COc1ccccc1CC(=O)N(CCC1=CCCCC1)c1c(N)n(Cc2ccccc2)c(=O)[nH]c1=O — higher, -12%
- Cc1[nH]c(=O)[nH]c(=O)c1S(=O)(=O)NCC12CC3CC(CC(C3)C1)C2 — higher, -0.676%
- COc1ccc(/C=C2\CC/C(=C\c3ccc(OC)cc3OC)C2=O)c(OC)c1 — higher, -3.75%

From publication PMC4336329 (PLoS ONE, 2015)
